Source: PubChem BioAssay AID493208 (National Center for Advancing Translational Sciences (NCATS), 2011)
In all, about 44,000 compounds went through this assay and about 340 (0.77%) were called active. Inconclusive results (about 5%) are left out. The call rests on the fitted dose curve; in most records, active means well fitted inhibition curve with a large enough effect; inconclusive means small, poorly fitted or top-dose-only effect; inactive means flat fitted curve, though single readings scatter. Some of the results follow.

Assay: Acumen qHTS Assay for Inhibitors of the mTORC1 Signaling Pathway in MEF (Tsc2-/-, p53-/-) Cells: Sytravon;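 further: plate controls were DMSO for no effect and rapamycin for full effect; nearly all actives have a fitted effect of over 50% in size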
Conditions: phospho-rpS6 immunofluorescence/PI, 24 h; series mostly up to 38.3 µM; activity change, negative = inhibition: at the top concentration
Procedure, shortened: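 Read-out: phospho-S6 Alexa-488 intensity over PI intensity per well, scored as % active cells using thresholds from rapamycin (7.5 nM) and DMSO controls. Tsc2-/-, p53-/- MEFs exposed to compound for 24 h; PI cell count recorded as viability.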

Activity change, negative = inhibition, inactive:
CC(C)N(Cc1ccccc1)C(=O)CCS(=O)(=O)c1cc2c(cc1Cl)NC(=O)CO2 -12.2%
Cc1cc(NC(=O)C(C)C)cc(-c2nc3ncccc3o2)c1O 0.413%
Cc1ccc2nc(-c3ccc(O)cc3)c(Nc3ccc4c(c3)OCO4)n2c1 1.48%
Cc1cc(C)n2nc(SCC(=O)Nc3ccccc3)nc2n1 -0.477%
COc1cc(-c2nnc(SCC(=O)Nc3ccc(F)c(Cl)c3)o2)cc(OC)c1OC 1.64%
CCCNC(=O)C1CCN(S(=O)(=O)c2ccc3c(c2)CCCN3C(C)=O)CC1 -0.301%
Cc1cc2nc(-c3cc(NC(=O)c4cc5ccccc5o4)ccc3Cl)oc2cc1C 9.73%
COc1cccc(C(=O)Nc2ccccc2OCc2cc(=O)n3cc(C)ccc3n2)c1 4.38%
CCc1ccc(NC(=O)CSc2nc3n[nH]c(C)c3c(=N)n2-c2ccccc2C)cc1 -7.04%
Cc1oc(-c2ccc(Cl)cc2)nc1CS(=O)CC(=O)NCc1ccc(Cl)cc1 (stereo unspecified) -0.548%
COc1ccc(N(CC(=O)NCCc2cccc(C)c2)S(=O)(=O)c2c(C)nn(C)c2C)cc1 1.54%
CCOC(=O)C1=C(CS(=O)(=O)c2c(C)cc(C)cc2C)NC(=O)NC1c1cccc(OC)c1 (stereo unspecified) -20.4%
COc1ccccc1N1CCN(C(CNC(=O)C(=O)NCCCN(C)C)c2cccnc2)CC1 (stereo unspecified) 4.67%
O=C1CC(c2ccccc2C(F)(F)F)c2c(c3ccccc3[nH]c2=O)O1 (stereo unspecified) -11.4%
N#Cc1c(NC(=O)c2cc3nc(-c4ccc(Br)cc4)cc(C(F)(F)F)n3n2)sc2c1CCCC2 -1.26%
COC(=O)c1cccc(Nc2c(-c3ccc(O)c(OC)c3)nc3nc[nH]n23)c1 -0.407%
COCc1cc(C)nc2sc3c(c12)NC(c1ccc(O)cc1)N(c1ccc(OC)cc1)C3=O (stereo unspecified) -4.73%
CCOc1ccc(NC(=O)C2Cc3ccccc3N2C(=O)c2ccccc2)cc1 (stereo unspecified) 9.04%
CCCCOc1ccc(CNC(=O)C2CCN(c3nnc(-n4cccc4CNc4ccc(C)cc4)s3)CC2)cc1 -0.926%
COc1ccc2c(c1)CCc1c(C(=O)Nc3cc(C)ccc3O)noc1-2 -10.3%
COc1cc(Cn2c(=O)sc3ccccc32)ccc1OC(C)C 9.01%
COc1ccccc1NC(=O)Cc1c(C(=O)O)[nH]c2ccc(Cl)cc12 -10.6%
COCCn1c(C)cc(O)c(C(c2ccccc2)N2CCN(C)CC2)c1=O (stereo unspecified) 6.07%
Cc1cccc(NC(=O)CSc2nc3ccc(NC(=O)c4ccco4)cc3s2)c1 -18.4%
Cc1ccc(C)c(N2CCN(CCCNC(=O)Nc3cc(Cl)ccc3C)CC2)c1 3.05%
COc1ccc(CNC(=O)Cc2csc3ccccc23)cc1OC -1.93%
CCc1nn(CC(=O)N2CCCCC2)c(=O)c2cc3sccc3n12 -3.08%
COc1cc(Br)c(/C=C(\C#N)c2nc3ccccc3[nH]2)cc1OC -11.8%
CC(NC(=O)c1cc(Sc2ccc(F)cc2F)nc2ccccc12)c1ccccc1 (stereo unspecified) 15.2%
CCc1ccccc1NC(=O)C1CCC(CNS(=O)(=O)c2ccc3c(c2)CC(C)N3C(C)=O)CC1 (stereo unspecified) -7.22%
CCOc1ccc(-c2nnc(SCC(=O)NCCC(C)C)nc2-c2ccc(OCC)c(OC)c2)cc1OC -1.64%
COc1ccc2nc(NC(=O)c3nc(SCc4ccc(F)cc4)ncc3Cl)sc2c1 3.06%
Cc1cn2c(=O)c(S(=O)(=O)NCCc3ccccc3)c(C)nc2s1 2.87%
CC(C)CN1CCc2nc(N3CCN(c4ncccn4)CC3)ncc2C1 13.6%
Cc1ccc(N2C(=O)CSC23C(=O)N(CC(=O)NC2CCCCC2)c2ccccc23)cc1 (stereo unspecified) 0%
CC(C)OCCCNC(=O)c1ccc(-n2c(-c3ccccc3)cc3c2CCCC3)cc1 0%
COc1ccc2nc(SCC(=O)c3c(C)[nH]c4ccccc34)nc(C)c2c1 1.99%
CCOc1ccc(OCC)c(NC(=O)C2CCN(S(=O)(=O)c3ccc(Br)s3)CC2)c1 6.82%
Cc1ccc(N2CCN(C(=O)Cc3c(C(=O)O)c(C)cn3C)CC2)c(C)c1 -3.6%
Cc1ccc(S(=O)(=O)c2nnn3c2nc(N2CCN(c4ccc(F)cc4)CC2)c2cc(Cl)ccc23)cc1C -3.98%
O=C(Nc1ccc(F)cc1)[C@H](CSCc1ccccc1)N1Cc2ccccc2C1=O -5.71%
O=C(COC(=O)CCCC1=NS(=O)(=O)c2ccccc2N1)Nc1ccc(Br)cc1 0.117%
COc1cccc(-n2c(=O)c3c(C)c(C(=O)N(C)C)sc3n(CC(=O)NCCc3ccc(OC)c(OC)c3)c2=O)c1 -8.47%
COc1ccc(-c2nc(C)c(CCNC(=O)Cc3ccc(F)cc3)s2)cc1OC -7.25%
CCc1ccc(NC(=O)C2CCN(C(=O)N3CC(CC)Oc4ccccc43)CC2)cc1 (stereo unspecified) 9.38%
CCc1ccc(NC(=O)CSc2nc3nccnc3c(=O)n2CCc2c[nH]c3ccccc23)cc1 0%
Cc1ccc(NC(=O)C(=O)NCC(c2cccnc2)N2CCN(C)CC2)cc1F (stereo unspecified) -13.6%
COC(=O)C(CCSC)NC(=O)c1c(C)oc2ncn(CC(C)C)c(=O)c12 (stereo unspecified) 1.45%
CCOC(=O)c1ccc(NC(=O)c2ccc3c(c2)NC(=O)c2ccccc2S3)cc1 -9.83%
Cc1c(Cl)cccc1NC(=O)CSc1ncccc1C(=O)Oc1ccccc1Cl 6.9%
COc1ccc(CNC(=O)c2cccc(-n3cnc4cccnc43)c2C)cc1 -1.29%
COc1cccc(C(=O)Nc2ccc(-c3cn4cccnc4n3)cc2)c1OC -28.7%
CCOCCSc1c(C)cnc2c1c(=O)n(C)c(=O)n2C -10.3%
COc1cc2ccccc2cc1C(=O)Nc1ccc(Cl)c(-c2nc3ccccc3o2)c1 3.87%
CCn1ccc2cc(S(=O)(=O)N3CCC(C(=O)NCCc4ccc(C)cc4)CC3)ccc21 0.0358%
COc1cc(OC)cc(C(=O)NCC(c2cccs2)S(=O)(=O)c2ccc(F)c(C)c2)c1 (stereo unspecified) -0.0841%
COc1cc(C(=O)N2CCN(CCc3ccccn3)CC2)cc(OC)c1OC -3.54%
COc1ccccc1NC(=O)CN1C(=O)C2(SCC(=O)N2c2ccc(C)c(C)c2)c2ccccc21 (stereo unspecified) -5.74%
Cc1ccc(N(CC(=O)Nc2cc(C)cc(C)c2)S(=O)(=O)c2cccc3nonc23)cc1 2.19%
CC1=C(c2ccc(C)cc2)S(=O)(=O)N(Cc2ccc(C(=O)Nc3ccc(F)cc3C)cc2)C1=O -19.4%
CC(C)c1ccc(C2N=C(N)Nc3nc4ccccc4n32)cc1 (stereo unspecified) -0.977%
